According to PubChem BioAssay AID463173 (ICCB-Longwood Screening Facility, Harvard Medical School, 2010):
Among all 52,000 compounds or so, about 4,300 (8.3%) were called active. No stated cut-off is given here; in the data, active means survival mostly below about 52% (no sharp cut-off); inactive means mostly above about 56%. The list shows a part of the results.

Each compound was assayed on DeltatarO mutant (assay: growth inhibition of S. aureus wild type versus tarO mutant, primary screen, teichoic acid synthesis inhibitors, RN4220, OD600 (AID 463173)). Settings: OD600, 18 h, stronger effect = lower value, screened at 18.75 µg/mL (by protocol).

Compound | survival
Cc1cn2c(=O)c(S(=O)(=O)Nc3ccc(N4CCOCC4)cc3)c(C)nc2s1 | inactive: 60%
COCCNC(=O)c1cnn(-c2cccc(C)c2)c1-n1cccc1 | inactive: 102%
CC1CCN(S(=O)(=O)c2cc(C(=O)NCc3ccccc3)n(C)c2)CC1 | inactive: 79%
COc1cc2ncc3c(-c4ccccc4)nn(CC(=O)NC4CCCCC4)c3c2cc1OC | inactive: 92%
COc1ccccc1CNC(=O)c1ccc(-n2c(C)cc3c2CCCC3)cc1 | inactive: 87%
COc1ccc(Cl)cc1NC(=O)c1cnc(N2CCCCC2)c2ccccc12 | inactive: 78%
Cc1c(Cl)cccc1NS(=O)(=O)c1ccc(NS(=O)(=O)c2ccc3c(c2)OCCO3)cc1 | active: 13%
CCOC(=O)Cn1c(=O)oc2cc(S(=O)(=O)NC(C)c3ccccc3)ccc21 (configuration not stated) | inactive: 66%
C=C(C)CN1N=C(C(C)(C)C)CC1=O | inactive: 93%
CCc1ccc(CN(C(=O)Nc2cccc(Cl)c2)c2ccccn2)cc1 | inactive: 94%
COC(=O)c1nc2n(n1)C(c1cc(OC)ccc1OC)C=C(c1ccc(Br)cc1)N2 (configuration not stated) | inactive: 84%
CCOC(=O)N1CCN(C(=O)c2ccc3c(c2)N(Cc2cccc(Cl)c2)C(=O)c2ccccc2S3=O)CC1 (configuration not stated) | inactive: 102%
CC(=O)c1ccc(C(=O)N(Cc2cccnc2)c2nc3c(C)c(C)ccc3s2)cc1 | active: -1%
O=C1CN(C(=O)COc2ccc(Cl)cc2)C(c2ccc(F)cc2)c2cc(Cl)ccc2N1 (configuration not stated) | inactive: 45%
Cc1ccc(-c2nc3ccccn3c2Nc2ccc3c(c2)OCCO3)o1 | inactive: 45%
O=C(Nc1ccc(Br)cc1)C1CCN(c2ncccn2)CC1 | inactive: 67%
COc1cc(NC(=O)C(=O)Nc2ccc3nc4n(c(=O)c3c2)CCCCC4)cc(OC)c1OC | inactive: 85%
COC(=O)CNc1ccc(C)c(C)c1 | inactive: 67%
CCOc1ccc(NC(=O)C2CCN(S(=O)(=O)c3c(C)noc3/C=C/c3ccco3)CC2)cc1 | inactive: 70%
CCOC(=O)c1ccccc1NC(=O)N1CC(C)Oc2ccc(C)cc21 (configuration not stated) | inactive: 50%
CCOc1ccc(NC(=O)CCn2cccn2)cc1 | inactive: 73%
CCCCOC(=O)/C(C#N)=C\c1ccc(-c2ccc(Cl)cc2)o1 | inactive: 71%
CC(C)c1ccc(NC(=O)CN2C(=O)CSc3ccc(S(=O)(=O)N4CCCC4)cc32)cc1 | inactive: 83%

Compound | survival
Cc1ccc(-c2nc(S(=O)(=O)c3ccccc3)c(SCC(=O)NC3CCCCC3)o2)cc1 | active: 43%
CC(C)CC(NC(=O)C1CCCCC1)C(=O)Nc1cccc(C(F)(F)F)c1 (configuration not stated) | inactive: 70%
COc1ccccc1N1CCN(S(=O)(=O)CCNC(=O)COc2ccccc2F)CC1 | inactive: 83%
Cc1ccc(CNc2ncccc2-c2nc(-c3ccc(Cl)cc3)no2)cc1 | inactive: 78%
O=C(CCCn1c(=O)c2sccc2n(Cc2ccc(Cl)cc2)c1=O)NCc1ccc2c(c1)OCO2 | inactive: 58%
COc1ccc(Br)cc1CNC(=O)CCc1cn(Cc2ccc(C)cc2)c2ccccc12 | inactive: 76%
CCOC(=O)c1ccccc1NC(=O)c1cc2c(s1)-c1ccccc1SC2 | inactive: 54%
COC(=O)c1sccc1S(=O)(=O)N1CCN(c2ccc(Cl)cc2)CC1 | inactive: 80%
Cc1scc(CN2CCN(c3ccc(F)cc3)CC2)c1C | inactive: 64%
Cc1cccc(N2CCN(C(=O)c3cccn3-c3nnc(N4CCCCC4)s3)CC2)c1C | inactive: 72%
CCc1ccc(NC(=O)c2ccc(NS(=O)(=O)c3c(C)noc3C)cc2)cc1 | inactive: 48%
CCc1cccc(C)c1NC(=O)c1cc(S(=O)(=O)N2CCCCCC2)cn1C | inactive: 83%
Cc1ccc(Cl)cc1N1CCN(C(=O)c2nn(C)c3c2CS(=O)(=O)c2ccccc2-3)CC1 | active: 58%
CCS(=O)(=O)N(CC(=O)Nc1sc(C)c(C)c1C(N)=O)Cc1ccc(F)cc1 | inactive: 53%
COc1ccc(CCNC(=O)CCc2cn(Cc3ccc(F)cc3)c3ccccc23)cc1OC | inactive: 102%
Cc1ccc(Cl)cc1NC(=O)c1cc(CN2CCCC2)on1 | inactive: 95%
CCc1ccc(Nc2nnc(-c3cc4cc(OC)ccc4oc3=O)s2)cc1 | inactive: 90%
Cc1ccc(NC(=O)c2c(C)oc3ccc(O)c(CN(C)Cc4ccccc4)c23)c(C)c1 | inactive: 73%
CCCn1nnc(NC(=O)Cc2ccccc2)n1 | inactive: 96%
COc1ccc(OC)c(CNc2ncnc3c2nc2n3CCCC2)c1 | inactive: 86%
CCN(C(=O)Cc1c(C(=O)O)c(C)cn1C)c1cccc(Cl)c1 | inactive: 89%
CCc1c(C)nc(SCc2nc(-c3ccccc3C)no2)[nH]c1=O | inactive: 83%
O=C(COc1ccc(F)cc1)Nc1ccc(S(=O)(=O)N(Cc2ccccc2)c2ccccc2)cc1 | inactive: 102%

Compound | survival
CCc1ccc(CNC(=O)c2sc3nc[nH]c(=O)c3c2C)cc1 | inactive: 82%
CCCNc1ncnc2c1c(-c1ccccc1)cn2-c1ccc(OCC)cc1 | inactive: 73%
COc1ccc(NC(=O)CCn2c(-c3ccc(F)cc3)cc(C(C)=O)c2C)c(OC)c1 | inactive: 124%
O=c1cc(CSc2ccccc2)[nH]c2ccc(F)cc12 | inactive: 90%
CCn1c(NC(C)=O)nc2ccccc21 | inactive: 85%
COC(=O)CSc1nnc(CNc2ccc(Cl)cc2)n1Cc1ccccc1 | inactive: 61%
CCCOc1ccc(C(=O)Nc2ccc(-c3cc4ccccc4oc3=O)c(C)c2)cc1 | inactive: 71%
Cc1ccccc1C(=O)Nc1nnc(S(=O)(=O)N(C)c2ccc(Cl)cc2)s1 | active: 30%
Cn1ncc(Cl)c1C(=O)NC(=S)Nc1sc2c(c1C#N)CCCC2 | inactive: 61%
COC(=O)c1sccc1S(=O)(=O)N(CC(=O)Nc1ccc(C)c(F)c1)c1ccc(C)c(C)c1 | active: 17%
NC1=NC2=C(CCCC2)C2(CCCCC2)S1 | inactive: 88%
Cc1ccccc1Cn1c(=O)n(CCc2ccccc2)c(=O)c2sc3ccccc3c21 | inactive: 73%
CCOc1ccc(S(=O)(=O)c2c(C(=O)c3ccc(C)c(C)c3)cnc3ccccc23)cc1 | inactive: 80%
Cc1ccc(CNC(=O)CCc2nnc3n(C)c(=O)c4sccc4n23)cc1 | inactive: 53%
Cc1ccc(NC(=O)c2sc3nc(-c4ccncc4)ccc3c2N)cc1 | inactive: 131%
CCOc1ccc2nc(NCCNC(=O)Nc3cccc(Cl)c3)c(C#N)cc2c1 | inactive: 82%
CNC(=O)Cn1cc(S(=O)(=O)Cc2ccccc2F)c2ccccc21 | inactive: 93%
Cc1nn(-c2ccccc2)c(-c2ccccc2)c1C(=O)O | inactive: 78%
CCOc1ccc(CCNC(=O)c2cnc3sc(N4CCC(C)CC4)nn3c2=O)cc1 | inactive: 84%
COC(=O)c1c(-c2cccs2)csc1NC(=O)COc1c(C)ccc(C)c1C | inactive: 70%
COc1ccc(-c2oc3ncn4nc(COc5c(C)cccc5C)nc4c3c2-c2ccc(OC)cc2)cc1 | inactive: 57%
Cc1nn(C(=O)c2ccccc2F)c(C)c1S(=O)(=O)N1CCCCCC1 | inactive: 83%
CCOc1ccccc1NC(=O)N1CCc2cc(S(=O)(=O)N3CCC(C)CC3)ccc21 | inactive: 69%

Compound | survival
Cc1cc(Br)ccc1NC(=O)C1CCN(S(=O)(=O)c2cccc3nsnc23)CC1 | inactive: 115%
Cc1ccccc1-c1nnc(CN2CCN(c3ccccn3)CC2)o1 | inactive: 120%
COc1ccc(-c2noc(-c3ccc(N4CCN(C)CC4)c([N+](=O)[O-])c3)n2)cc1OC | inactive: 50%
CCOC(=O)c1ccc(NC(=O)N2CCOc3ccccc32)cc1 | inactive: 71%
COCCCNC(=O)C(=O)Nc1c2c(nn1-c1cccc(Cl)c1)CSC2 | inactive: 79%
Cc1cc(C)c(CO)c(C)c1CO | inactive: 100%
CCCOC(=O)CSc1ncnc2sc3c(c12)CCC(C)C3 (configuration not stated) | active: 7%
COc1ccc(-c2cc(C)no2)cc1S(=O)(=O)NC(C)C | inactive: 75%
Cc1cc(C)c(C#N)c(SCC(=O)Nc2sc3c(c2C#N)CCC(C(C)(C)C)C3)n1 (configuration not stated) | inactive: 75%
COc1ccc(-c2noc(Cn3c(=O)c4ccccc4n(CC(=O)Nc4cccc(OC)c4)c3=O)n2)cc1 | inactive: 87%
COc1ccc(CN2CCc3nc(SCC(=O)Nc4cc(C)cc(C)c4)[nH]c(=O)c3C2)cc1 | inactive: 74%
COc1cc(OC)cc(N2C(=O)N(CC(=O)c3ccc(F)cc3)c3ccccc3S2(=O)=O)c1 | inactive: 86%
Cn1nnnc1SCCCNCc1ccccc1OCc1ccccc1Cl | inactive: 110%
COc1ccccc1NC(=O)c1sc2nc(N3CCOCC3)c3c(c2c1N)CC(C)(C)OC3 | inactive: 74%
Cc1ccc(NC(=O)CSc2ncc3c(n2)-c2ccc(Cl)cc2N(C)S3(=O)=O)cc1F | inactive: 69%
C=CCN1C(=O)C(CC(=O)NCC)SC1=Nc1ccccc1OC (configuration not stated) | inactive: 91%
Cc1ccc(Cn2c(SCc3ccc(C(=O)N4CCCCCC4)cc3)nc3ccncc32)cc1 | inactive: 71%
Cc1cccc(NC(=O)c2sc(-n3nc(C)c(Cc4ccc5c(c4)OCO5)c3C)nc2C)c1C | inactive: 105%
CCCCOC(=O)c1ccc(NC(=O)Cn2nnc3sc4c(c3c2=O)CCCC4)cc1 | inactive: 67%
O=C(NCc1cccs1)c1ccc(Cn2c(SCc3cccc(F)c3)nc3cccnc32)cc1 | inactive: 58%
O=C(O)C1Cc2c([nH]c3ccccc23)C(Cc2ccccc2)N1 (configuration not stated) | inactive: 70%
CCC(=O)N1CCc2cc(S(=O)(=O)CCC(=O)NCc3ccc(C)cc3)ccc21 | inactive: 92%
COc1ccccc1-c1nc2c(c(SCC(=O)Nc3c(C)cc(C)cc3C)n1)Cc1c(CO)cnc(C)c1O2 | inactive: 87%
